In the supplement of paper PMC10126150:
Values marked as one replicate rest on one cluster of the flow cell; about a third of the high ones do not repeat.

Tested on: ATP
Assay: switch fluorescence ratio, 500 uM ATP over buffer (Cy3 cluster intensity, sum of 5 cycles each) (fold (ratio)); higher = stronger signal-on switching upon ATP binding; sequences stand for … in TCGTCGGCAGCGTCAGATGTGTATAAGAGACAGTTTTTTTTTTTTTTTTTTTTTTTTT…TC
Conditions: aptamer strand: ATP DNA aptamer (quencher-CACCTGGGGGAGTATTGCGGAGGAAGG + anchor), 100 nM annealed; ATP concentration: 500 uM; one replicate
Outline: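 Cy3-labelled switching-strand clusters on a modified Illumina MiSeq flow-cell were annealed to 100 nM quencher-labelled ATP aptamer and imaged first in selection buffer, then after 15 min with 500 uM ATP at 22 °C. NaOH stripping and re-annealing separated each of five buffer/ATP cycles, and clusters outside 100-1000 RFU were excluded. The fluorescence ratio sums target-cycle Cy3 intensity over buffer-cycle Cy3 intensity per cluster and averages it per switch-domain sequence.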
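Further: ATP exposure 15 min at 22 °C before imaging.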

CCCATAAGTT
switch fluorescence ratio: 1.01

TTCCCCGGGG
switch fluorescence ratio: 1.63

ACTTTATTGA
switch fluorescence ratio: 1.01

GGTAGTTAAC
switch fluorescence ratio: 1.04

AATCGAGATC
switch fluorescence ratio: 1.03

CTAATAACTT
switch fluorescence ratio: 1.02

CGGCCTGGTA
switch fluorescence ratio: 0.977

TTTAGCCAGA
switch fluorescence ratio: 0.955

GCTTCGGTGT
switch fluorescence ratio: 0.959

GTACTGGGCC
switch fluorescence ratio: 1.02

ACTCGAGGTG
switch fluorescence ratio: 1.13

AGAAACGGAC
switch fluorescence ratio: 1.42

AACCCTGC
switch fluorescence ratio: 1.04

GTGGATATGT
switch fluorescence ratio: 0.983

GAAGGTATGC
switch fluorescence ratio: 0.976

AATTCTCCGT
switch fluorescence ratio: 1.12

GGTGGGCATG
switch fluorescence ratio: 1

CTCAGACAAT
switch fluorescence ratio: 1.75

TATCAGCTTA
switch fluorescence ratio: 0.984

GAAAATGGCC
switch fluorescence ratio: 1.01

GGATATGC
switch fluorescence ratio: 1.15

TACCTGGGA
switch fluorescence ratio: 1.01

TTACGACGA
switch fluorescence ratio: 1.09

GCATATCTG
switch fluorescence ratio: 1.02

CCGGCCGAAA
switch fluorescence ratio: 1.6

ATGTGATCCT
switch fluorescence ratio: 1.04

TAAAGGGGCC
switch fluorescence ratio: 0.955

GTATTTGCTA
switch fluorescence ratio: 0.989

GTCTCACCTG
switch fluorescence ratio: 1.04

ATGGCGGGTG
switch fluorescence ratio: 0.987

TGGTATGTTA
switch fluorescence ratio: 1.07

AAGGATGGTC
switch fluorescence ratio: 0.992

TTATTAGTTC
switch fluorescence ratio: 1.01

TTAATAATCG
switch fluorescence ratio: 0.994

GTTAGAGGCA
switch fluorescence ratio: 0.975

GAGGAGACGC
switch fluorescence ratio: 1.07

ACTCAGTCTA
switch fluorescence ratio: 1.03

CCAGAAATGA
switch fluorescence ratio: 1.01

ACACGGGATC
switch fluorescence ratio: 1.07

CGCCGACTAC
switch fluorescence ratio: 2.65

CAAAGGTGTA
switch fluorescence ratio: 1.03

GAAGCTTAAC
switch fluorescence ratio: 2.17

AGTCACGTCG
switch fluorescence ratio: 0.953

ACACTTGGTT
switch fluorescence ratio: 1.06

TGGTGTACCC
switch fluorescence ratio: 0.989

GGGATGGTGA
switch fluorescence ratio: 1.01

CCTAGGGTCC
switch fluorescence ratio: 1.04

GATAGGGACC
switch fluorescence ratio: 1

ACACTAATAA
switch fluorescence ratio: 1.03

CTAAGGAATT
switch fluorescence ratio: 0.99

GTCTGGCCGT
switch fluorescence ratio: 1.01

AAGAATTCGA
switch fluorescence ratio: 1.02

CTGCGAACTT
switch fluorescence ratio: 1.03

ATACCCTTGG
switch fluorescence ratio: 0.982

AGAGCTTGGG
switch fluorescence ratio: 1.01

CTAGGAGCGG
switch fluorescence ratio: 0.965

GGAAAATATT
switch fluorescence ratio: 1.01

ATCCTATTAG
switch fluorescence ratio: 1.01

GGAGTTATTA
switch fluorescence ratio: 1.01

CCAGTGTTGA
switch fluorescence ratio: 1.08

CGACTTAAAA
switch fluorescence ratio: 1.02

CCCGGTCA
switch fluorescence ratio: 1.03

AAGACCGCAT
switch fluorescence ratio: 1.47

GTTGGTACCA
switch fluorescence ratio: 1

GATTAATAGG
switch fluorescence ratio: 1.03

TTGTGGTCCG
switch fluorescence ratio: 1

AGAAGTCCAT
switch fluorescence ratio: 0.966

ACGTCCGGGA
switch fluorescence ratio: 1.14

CCTTGGGGGT
switch fluorescence ratio: 1.02

TGTTTCCTGA
switch fluorescence ratio: 0.971

TGAGTTTGAT
switch fluorescence ratio: 1.02

GAAGATCTTG
switch fluorescence ratio: 0.982

GGTGTATCGG
switch fluorescence ratio: 0.985

AGCTGAAGGG
switch fluorescence ratio: 1.01

GAGATTACGG
switch fluorescence ratio: 1.03

CGCTGGGACT
switch fluorescence ratio: 1.18

TGGGTAGACG
switch fluorescence ratio: 1.02

AAACTTTATC
switch fluorescence ratio: 1.01

AGACGATTAA
switch fluorescence ratio: 0.936

TTGAAGCCCC
switch fluorescence ratio: 1.19

TAAAAGGAGC
switch fluorescence ratio: 1.01

AGGCATTACT
switch fluorescence ratio: 1.76

TGCCATACAA
switch fluorescence ratio: 1.02

CATGACACTA
switch fluorescence ratio: 1.09

TATATGTTCG
switch fluorescence ratio: 1.07

TTTCTGCGTT
switch fluorescence ratio: 1.71

AACGACCTAA
switch fluorescence ratio: 1.07

GGACAGGTC
switch fluorescence ratio: 0.954

ACAGAAGGCA
switch fluorescence ratio: 1.04

ATGGACGGCA
switch fluorescence ratio: 1.06

ACGGGTGTTT
switch fluorescence ratio: 0.962

ATACTTGTTA
switch fluorescence ratio: 0.959

TTAACCTTG
switch fluorescence ratio: 1.06

GCTACGACGA
switch fluorescence ratio: 1.35

TGGATTCTGG
switch fluorescence ratio: 0.971

GCATTCAGCA
switch fluorescence ratio: 0.988

TCGGCTTTGC
switch fluorescence ratio: 1.07

GCTCTTGGCT
switch fluorescence ratio: 0.995

CAGGCTAATA
switch fluorescence ratio: 0.99

GACGAATGAT
switch fluorescence ratio: 1.01

TTGGGGACCG
switch fluorescence ratio: 1

ACCCAACGTC
switch fluorescence ratio: 1.29

GGGGCCTCAT
switch fluorescence ratio: 0.998

ATACCGATGA
switch fluorescence ratio: 1.04

GATTAATAGT
switch fluorescence ratio: 1.02

TTTACAGTTC
switch fluorescence ratio: 1

AAGACGAATA
switch fluorescence ratio: 0.968

TTCCTTTATT
switch fluorescence ratio: 1.05

CGTAACTACC
switch fluorescence ratio: 1.23

GGGCGGATCG
switch fluorescence ratio: 1.03

TTCAGCTTTA
switch fluorescence ratio: 0.981

TGTTAATTTA
switch fluorescence ratio: 1.01

TGGTTAGGAG
switch fluorescence ratio: 0.978

GATTTCGTGC
switch fluorescence ratio: 1.02

GGAGTACCAC
switch fluorescence ratio: 0.994

TTGTTATACA
switch fluorescence ratio: 1

ATTAGACATA
switch fluorescence ratio: 0.986

ACCGTAGAAA
switch fluorescence ratio: 1.82

TAAGACATGT
switch fluorescence ratio: 1.01

TTATATAAGG
switch fluorescence ratio: 1.01

GTGGACAAAA
switch fluorescence ratio: 0.93

GCGAGCGCTA
switch fluorescence ratio: 1.1

AGTGATGCTG
switch fluorescence ratio: 1.03

ATCCACGGG
switch fluorescence ratio: 1.13

CCTGGGTGGC
switch fluorescence ratio: 1.12

CTTAGAAATC
switch fluorescence ratio: 1.01

AACTACGGA
switch fluorescence ratio: 1.08

CGCTAGCTGG
switch fluorescence ratio: 1.02

TCCGTGACAC
switch fluorescence ratio: 4.46

AGAGGCCACG
switch fluorescence ratio: 1.02

GTTGACAGGT
switch fluorescence ratio: 0.979

CCAGAGATAC
switch fluorescence ratio: 2.87

TTACCATCAG
switch fluorescence ratio: 1.05

GTGCCGGGAT
switch fluorescence ratio: 2.75

TTAGGGGCCA
switch fluorescence ratio: 0.956

CATTTTACAA
switch fluorescence ratio: 0.991

AAGATGATGA
switch fluorescence ratio: 1.02

CTTGGGCATC
switch fluorescence ratio: 1.05

AAACGCCCTT
switch fluorescence ratio: 1.58

TAGATCTGAC
switch fluorescence ratio: 0.99

AGATTATTT
switch fluorescence ratio: 0.969

TCAGGTTGCA
switch fluorescence ratio: 1.03

GCGAGGGCGG
switch fluorescence ratio: 0.971

TGTGGAGTTA
switch fluorescence ratio: 0.986

GTATATGGAA
switch fluorescence ratio: 1.03

GGTGTAAACT
switch fluorescence ratio: 0.978

AAAGGATTTC
switch fluorescence ratio: 0.981

CTTTACAGGT
switch fluorescence ratio: 1.03

ATTGGGAGCT
switch fluorescence ratio: 1.02

CTATAACGCC
switch fluorescence ratio: 1.03

ATACGTGAT
switch fluorescence ratio: 1.11

TCGTATTCAA
switch fluorescence ratio: 1

AATAGCTTCT
switch fluorescence ratio: 1.03

GGCCCAGGTT
switch fluorescence ratio: 0.924

GTCGCGGCAT
switch fluorescence ratio: 0.993

ACGCTGGGAA
switch fluorescence ratio: 1.02

CTCACTTGG
switch fluorescence ratio: 1
